# Measurements as given in PubChem BioAssay AID1159614 (National Center for Advancing Translational Sciences (NCATS), 2016).
# The campaign covered roughly 45,000 compounds. About 65 (0.1%) were called active. The call rests on the fitted dose curve; in most records, active means well fitted activation curve with a large enough effect; inconclusive means small, poorly fitted or top-dose-only effect; inactive means no such curve, though single readings can be large or run the other way. Some of the results follow.
# Target: Galactocerebrosidase (Homo sapiens) (UniProt P54803)
# UniProt P54803, sequence (P54803 whole entry, looked up): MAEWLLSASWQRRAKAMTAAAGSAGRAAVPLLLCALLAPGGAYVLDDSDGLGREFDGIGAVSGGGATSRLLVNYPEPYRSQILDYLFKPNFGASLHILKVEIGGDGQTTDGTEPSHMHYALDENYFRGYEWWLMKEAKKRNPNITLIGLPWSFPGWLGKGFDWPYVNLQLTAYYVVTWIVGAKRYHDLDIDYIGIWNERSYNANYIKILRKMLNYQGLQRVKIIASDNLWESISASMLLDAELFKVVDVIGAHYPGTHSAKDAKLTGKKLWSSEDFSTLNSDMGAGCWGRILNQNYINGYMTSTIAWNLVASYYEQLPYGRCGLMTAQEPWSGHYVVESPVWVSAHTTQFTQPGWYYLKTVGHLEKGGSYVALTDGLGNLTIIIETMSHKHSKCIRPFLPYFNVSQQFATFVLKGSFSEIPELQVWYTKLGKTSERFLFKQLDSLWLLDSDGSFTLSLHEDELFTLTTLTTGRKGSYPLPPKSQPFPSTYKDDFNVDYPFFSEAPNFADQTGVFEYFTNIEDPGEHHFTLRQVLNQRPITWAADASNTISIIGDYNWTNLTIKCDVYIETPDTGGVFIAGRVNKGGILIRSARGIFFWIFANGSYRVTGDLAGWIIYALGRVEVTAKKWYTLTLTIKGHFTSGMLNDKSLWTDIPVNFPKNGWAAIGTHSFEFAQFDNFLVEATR
# Assay: A Novel Cell-Based Assay to Identify Small Molecules for B -Galactocerebrosidase; further: 0% is about no effect; nearly all actives have a fitted effect of over 65% in size
# Settings: 145M-Twi-hGALC-G270D cells (Twitcher mouse brain line with human GALC G270D), HMU-beta-Gal fluorescence, 48 h; series mostly up to 57.5 µM; activation: at the top concentration
# In short: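 Fluorescence readout: HMU-β-gal cleavage by mutant GALC (0.1 mM final, citrate/phosphate pH 5.2 with 1 mg/mL taurocholate), stopped with carbonate/bicarbonate plus Triton X-100. Cells: murine Twitcher 145M-Twi expressing human G270D GALC; qHTS for activators.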
row,Structure (SMILES),activation
1,COc1ccccc1NC(=O)Cn1c(=O)n(-c2cccc(Cl)c2)c(=O)c2sc3ccccc3c21,inactive: -8.01%
2,O=C1Cc2cc(S(=O)(=O)N3CCCCC3)cc3c2N1CCC3,inactive: -5.44%
3,Cc1ccc(N2CC(NC(=O)Cc3ccc(F)cc3)CC2=O)cc1 (stereo unspecified),inactive: -5.07%
4,CC1=C(C(=O)Nc2cccc(C(F)(F)F)c2)C2(CCCCCC2)OC1=O,inactive: -1.52%
5,O=C(Cn1c(=O)n(Cc2ccc(C(=O)NCc3ccc4c(c3)OCO4)cc2)c(=O)c2ccccc21)Nc1cccc(Cl)c1,inactive: -2.61%
6,Cc1ccc(C)c(Cn2cnc3ccccc3c2=O)c1,inactive: -10.6%
7,COc1cccc(CNC(=O)CSc2n[nH]c(-c3ccccc3Cl)n2)c1,inactive: -10.6%
8,CCc1ccc(CNC(=O)c2ccc3c(c2)nc2n3CCCCC2)cc1,inactive: -11.4%
9,COc1ccc(OC)c(CCNC(=O)CN2C(=O)COc3ccc(S(=O)(=O)N4CCCCCC4)cc32)c1,inactive: -13.4%
10,COc1cccc(CNC(=O)CCNS(=O)(=O)c2ccc3c(c2)CCCC(=O)N3)c1,inactive: -22.8%
11,Fc1ccccc1C1=NC(c2ccc(C(F)(F)F)cc2)=Nc2ccccc2N1,inactive: -18.5%
12,CCOc1ccccc1CN1CCc2nc(Nc3ccccc3)ncc2C1,inactive: 5.85%
13,COc1cc(CN2CCN(S(=O)(=O)c3ccc(F)cc3)CC2)cc(OC)c1OC,inactive: -0.835%
14,O=C(NCc1ccccn1)c1nn(-c2ccccc2F)nc1CO,inactive: -18%
15,Fc1ccc(-n2ncc3c(N4CCN(Cc5ccccc5)CC4)ncnc32)cc1,inactive: -9.92%
16,COC(=O)c1cc(OC)c(OC)cc1NC(=O)c1ccc2c(c1)CCN2S(=O)(=O)c1ccccc1,inactive: -2.28%
17,O=C(c1ccc(F)cc1)n1nc(-c2ccc(Cl)cc2)nc1NCc1ccco1,inactive: -21.1%
18,COc1ccccc1NC(=O)Cn1nc(C)n2cccc2c1=O,inactive: -10.9%
19,Cc1ccc(CNC(=O)Cn2ccn(-c3cc(C)cc(C)c3)c(=O)c2=O)cc1,inactive: -7.53%
20,O=C(Nc1c2c(nn1-c1ccc(Cl)cc1)CS(=O)(=O)C2)c1cccc(Cl)c1,inactive: -20.6%
21,CC1=C(C(=O)Nc2ccccc2)C(c2cccs2)n2nc(SCc3ccccc3)nc2N1 (stereo unspecified),inactive: -12.5%
22,CC(=O)N1c2ccc(S(=O)(=O)NCCC(=O)Nc3ccc(C)cc3Br)cc2CC1C (stereo unspecified),inactive: -24.8%
23,CCc1cccc(NC(=O)CN2c3ccccc3S(=O)(=O)c3ccccc32)c1,inactive: -27.5%
24,O=C(CSc1ccc2nnc(CCNS(=O)(=O)c3ccccc3)n2n1)Nc1ccccc1C(F)(F)F,inactive: -0.0524%

row,Structure (SMILES),activation
1,COC(=O)c1ccc(Cn2c(SCC(=O)Nc3ccc(F)cc3)nc3ccccc32)cc1,inactive: 1%
2,Cc1ccc(N2CC(C(=O)NCc3nnnn3-c3ccc(C)c(C)c3)CC2=O)cc1 (stereo unspecified),inactive: 1.09%
3,CCOc1ccc(-c2cc(NC(=O)Nc3ccccc3C(F)(F)F)c(C(=O)OC)s2)cc1,inactive: -16.1%
4,CCCCOc1ccc(C(=O)Nc2ccc3c(c2)CCCN3S(=O)(=O)c2ccc(C)cc2)cc1,inactive: -17.4%
5,CCCCN(CC)Cc1ccc(CNS(=O)(=O)c2cc3c(cc2Cl)NC(=O)CO3)o1,inactive: -6.84%
6,CCOc1ccc(NC(=O)Cn2c(=O)n(Cc3ccc(C(=O)NCc4ccc5c(c4)OCO5)cc3)c(=O)c3ccccc32)cc1,inactive: -13.2%
7,CCOC(=O)N1CCc2c(sc3c2c(=O)n(-c2ccc(CC)cc2)c(=O)n3Cc2cc(C)ccc2C)C1,inactive: -5.03%
8,CCOc1ccccc1NC(=O)C1CCCN(S(=O)(=O)c2cn(C)cn2)C1 (stereo unspecified),inactive: -7.58%
9,CCOC(=O)c1c(C)oc2nc(C)nc(Nc3cc(C)ccc3OC)c12,inactive: -15.3%
10,CCOc1ccc(NC(=O)Cn2c(=O)cc(C)c3c(C)nn(-c4ccc(CC)cc4)c32)cc1,inactive: -8.33%
11,COc1ccc(C(=O)Nc2ccccc2C(=O)OCc2cc(=O)n3nc(C4CC4)sc3n2)cc1,inactive: -20.3%
12,O=C(C1CCCCC1)N(Cc1cccnc1)c1nc2ccc(F)cc2s1,inactive: -19.3%
13,CCc1nnc(NC(=O)CSc2nc3c([nH]c4ccccc43)c(=O)n2-c2ccc(OC)cc2)s1,inactive: -10.1%
14,CC(C)c1ccc(/C=C(\C#N)c2nc(-c3ccc(O)cc3)cs2)cc1,inactive: -43.7%
15,Nc1nc(N)c(S(=O)(=O)c2ccccc2)c(Nc2ccc(F)cc2)n1,inactive: 3.61%
16,CCOC(=O)c1c(Nc2cccc(C)c2)nnc(-c2ccccc2)c1-c1ccccc1,inactive: -31.1%
17,Cn1ccc2cc(S(=O)(=O)N3CCN(C(=O)Nc4ccccc4F)CC3)ccc21,inactive: 7.72%
18,CCc1cccc(NC(=O)COc2cc(=O)n(CC)c3ccccc23)c1,inactive: -7%
19,CCOC(=O)N1CCC(NC(=O)c2ccc3c(c2)N(Cc2ccc(Cl)cc2)C(=O)c2ccccc2S3=O)CC1 (stereo unspecified),inactive: -10.8%
20,Cc1cccc(N(C)S(=O)(=O)c2nnc(NC(=O)C3CCCCC3)s2)c1,inactive: -14.9%
21,O=C(CSc1nc2ccccc2nc1Cc1ccccc1)N1CCCc2ccccc21,inactive: -6.88%
22,CCOC(N)=O,inactive: -20.3%
23,COc1cc(-c2ccno2)ccc1S(=O)(=O)N1CCN(c2ccc(F)cc2)CC1,inactive: -23.3%
24,CCc1ccc2occ(CC(=O)N(Cc3ccc(N(C)C)cc3)C3CCS(=O)(=O)C3)c2c1 (stereo unspecified),inactive: -15.6%

row,Structure (SMILES),activation
1,CCOC(=O)c1cccc(NC(=O)c2sc3nc[nH]c(=O)c3c2C)c1,inactive: -12.6%
2,CCc1ccc(-c2nc(CSCC(=O)NCc3ccc(C)cc3)c(C)o2)cc1,inactive: -19.6%
3,COc1ccc(CN2CCN(S(=O)(=O)c3ccc(NC(C)=O)cc3)CC2)c(OC)c1OC,inactive: -22.2%
4,CC(=O)c1cc2c(cc1N/C(=N/S(=O)(=O)c1ccc(F)cc1)c1ccccc1)OCO2,inactive: -11.8%
5,CCN(Cc1ccccc1)C(=O)CCS(=O)(=O)c1ccc2c(c1)CCN2C(C)=O,inactive: -3.11%
6,CCc1ccc(NC(=O)c2sc3nc(C)cc(C)c3c2NC(=O)c2ccccc2OC)cc1,inactive: -17.2%
7,O=C(NC1CCCCC1)c1ccc2c(c1)N(Cc1cccc(Cl)c1)C(=O)c1ccccc1S2=O (stereo unspecified),inactive: -13.6%
8,CCc1ccc(NC(=O)CC2C(=O)N(c3ccc(Cl)cc3)C(=O)N2C2CCCC2)cc1 (stereo unspecified),inactive: -20.3%
9,COc1cc(OC)c(NC(=O)CSc2cc(=O)n(C)c3ccc(Cl)cc23)cc1Cl,inactive: -12.1%
10,CCc1c(CN2CCN(c3cccc(C)c3)C(C)C2)csc1C (stereo unspecified),inactive: -5.34%
11,O=C(Cn1ncc2c3ccccc3n(Cc3cccc(Cl)c3)c2c1=O)N1CCCCCC1,inactive: -13.1%
12,CCOc1ccc(CCNC(=O)Cn2c(C)c3cnn(-c4ccccc4)c(=O)c3c2C)cc1,inactive: -13.9%
13,O=C(NCc1ccco1)c1ccc2c(c1)N(Cc1cccc(Cl)c1)C(=O)c1ccccc1S2=O (stereo unspecified),inactive: -3.02%
14,Cc1ccc2[nH]c3c(=O)n(CC(=O)N4CCCC(C)C4)ncc3c2c1 (stereo unspecified),inactive: -9.27%
15,CC(CCCc1ccccc1)NC(=O)c1nn(-c2ccc(Cl)cc2)nc1CO (stereo unspecified),inactive: -8.3%
16,CC(C)c1cccc(C(C)C)c1NS(=O)(=O)c1cccs1,inactive: -12.7%
17,Nc1ncc(S(=O)(=O)NCc2ccc(F)cc2)cn1,inactive: 3%
18,O=C(NC1CC(=O)N(c2ccccc2)C1)c1ccc(S(=O)(=O)N2CCCC2)cc1 (stereo unspecified),inactive: -10.9%
19,CC(=O)c1cccc(Nc2nc(-c3ccccc3Cl)nc3ccccc23)c1,inactive: -2.16%
20,Cc1ccccc1Cn1c2ccccc2c2cnn(CC(=O)NCCc3ccc(Cl)cc3)c(=O)c21,inactive: -14.7%
21,Cc1cccc2sc(N(Cc3cccnc3)C(=O)COc3ccccc3)nc12,inactive: -6.89%
22,CCOc1ccccc1NC(=O)c1cc2c(=O)[nH]c3ccccc3c2s1,inactive: -11.5%
23,Cc1cc(C)c2c(-n3cccc3)c(C(=O)NCC(C)c3ccccc3)sc2n1 (stereo unspecified),inactive: -10.9%
24,COc1ccc(CNC(=O)C2CCN(S(=O)(=O)c3ccc4c(ccn4C)c3)CC2)cc1,inactive: -21.2%

row,Structure (SMILES),activation
1,CCOC(=O)c1c(C)[nH]c(C)c1S(=O)(=O)NCC(=O)N1CCN(c2ccccc2F)CC1,inactive: -14.4%
2,COc1ccc(-c2nc3ccccc3s2)cc1NC(C)=O,inactive: -28.1%
3,COc1ccc(C(=O)CCC(=O)Nc2cc(C)ccc2C)cc1,inactive: -21.4%
4,O=C1c2cccc(O)c2C(=O)c2c(O)cccc21,inactive: -10.8%
5,CCc1c(C)c(C#N)c2nc3ccccc3n2c1Nc1cccc(C(F)(F)F)c1,inactive: -9.54%
6,COc1ccc(-c2nc(S(=O)(=O)c3ccc(C)cc3)c(NCc3ccccc3)o2)cc1,inactive: -19.8%
7,Cn1cc(-c2cc3n(n2)CCC(=O)N3CCCC(=O)Nc2ccccc2F)c2ccccc21,inactive: -12.3%
8,Cc1cc(C)c2c(=O)c3c(oc2c1)C(=O)N(Cc1ccco1)C3c1ccccc1F (stereo unspecified),inactive: -5.59%
9,CCc1ccc(NC(=O)c2ccc(F)c(S(=O)(=O)N3CCN(c4cc(C)ccc4C)CC3)c2)cc1,inactive: -6.16%
10,Cc1noc2ncnc(N3CCCC(C(=O)Nc4cccc(C(F)(F)F)c4)C3)c12 (stereo unspecified),inactive: -10.8%
11,CC(C)c1ccc(NC(=O)Cn2c(=O)oc3cc(S(=O)(=O)N4CCCC4)ccc32)cc1,inactive: -22.1%
12,CC(C)c1ccc(NC(=O)C(Cc2ccccc2)NS(=O)(=O)c2ccc3c(c2)oc(=O)n3C)cc1 (stereo unspecified),inactive: -18%
13,Cc1noc(-c2ccc(-c3noc(-c4ccc(C(F)(F)F)cc4)n3)cc2)n1,inactive: -13.8%
14,O=C(NCCCN1CCN(c2ccc(F)cc2)CC1)c1ccc2nc(CCc3ccccc3)oc2c1,inactive: -7.58%
15,COc1ccc(Nc2nc(-c3ccccc3F)nc3ccccc23)cc1OC,inactive: -47.7%
16,CCc1cccc(NC(=O)C(CC)n2nc(C)c3sc4ccccc4c3c2=O)c1 (stereo unspecified),inactive: -5.81%
17,COc1ccc(NC(=O)c2sc3nc4c(cc3c2N)CN(Cc2ccccc2)CC4)cc1OC,inactive: -19.9%
18,Cc1c(C(=O)NCc2ccccc2Br)oc2ccc3c(c12)C(=O)CC(C)(C)O3,inactive: -11.1%
19,COc1ccc(NC(=O)CCc2nnc3n(CC(C)C)c(=O)c4ccccc4n23)cc1OC,inactive: -13.2%
20,CC(C)(C)OC(=O)N1CCC(c2c(C(=O)N3CCN(c4ncccn4)CC3)cnn2-c2cccc(F)c2)CC1,inactive: -1.07%
21,Cc1ccc(C)c(S(=O)(=O)c2nnn3c2nc(N2CCCCC2)c2sccc23)c1,inactive: -9.54%
22,CCOc1ccc(CC(=O)NCc2ccc3c(c2)CCN3C(C)=O)cc1OCC,inactive: -7.36%
23,CN(C)CCNC(=O)Cn1nc(N2CCN(c3ccccc3)CC2)ccc1=O,inactive: 3.86%
24,COc1ccc(NC(=O)c2ccc3c(c2)CCN3S(=O)(=O)c2ccccc2)cc1,inactive: -2.73%
